One test deals with HSkMC. The test can be described thus: cytotoxicity call (relative viability < 0.9). The settings on record: 10 µM.
The test system of the next test is HepG2. The test can be described thus: cytotoxicity call (relative viability < 0.9). The settings on record: 10 µM.
For another test, the system named is S. aureus RN4220. The experiment in a line: growth inhibition call (relative growth <= 0.2). The settings on record: 50 µM.

Some of the results follow.

Take `C[C@@H]1CN([C@H](C)CO)C(=O)CCCn2cc(nn2)CO[C@@H]1CN(C)C(=O)Nc1cccc(Oc2ccccn2)c1`: the cytotoxicity call with HSkMC and in the test with HepG2 was “inactive” throughout. In addition, in the test with S. aureus RN4220, the growth inhibition call was “inactive”.

For the compound `Nc1c2c(=O)[nH]c(=O)cc-2[nH]n1-c1ccccc1`, the cytotoxicity call in the test with HSkMC and in the test with HepG2 was “inactive” throughout. Moreover, the growth inhibition call in the test with S. aureus RN4220 was “inactive”.

With `CC(=O)O[C@@H]1[C@@H]2C[C@@H]([C@H]1OC(C)=O)[C@@H]1C(=O)N(C)C(=O)[C@@H]21`, the cytotoxicity call with HSkMC is “inactive”. Also, the cytotoxicity call with HepG2 is “active”. Also, the growth inhibition call in the test with S. aureus RN4220 was “inactive”.

As to `COc1ccc([Si](C)(C)[C@@H]2[C@@H](CC(=O)N(CCO)Cc3ccccc3)O[C@]3(C(=O)N(Cc4ccc(N5C(=O)c6cccc7cccc5c67)cc4)c4ccccc43)[C@H]2C)cc1`, in the test on HSkMC, the cytotoxicity call was “inactive”. The cytotoxicity call with HepG2 is “active”. Further, the growth inhibition call in the test with S. aureus RN4220 was “inactive”.

Take `COc1ccc(S(=O)(=O)Nc2ccc3c(c2)C(=O)N([C@H](C)CO)C[C@H](C)[C@@H](CN(C)Cc2ccc(Cl)c(Cl)c2)OCCCC[C@@H](C)O3)cc1`: the cytotoxicity call in the test with HSkMC was “inactive”. The cytotoxicity call in the test with HepG2 is “active”. In addition, in the test on S. aureus RN4220, the growth inhibition call was “inactive”.

Consider `CC(=O)Nc1ccc(OC(C)=O)cc1`, for which the cytotoxicity call with HSkMC and in the test with HepG2 was “inactive” in each case. Further, the growth inhibition call in the test with S. aureus RN4220 is “inactive”.

As for `C[C@@H]1CCCCO[C@H](CN(C)C(=O)Nc2ccc3c(c2)OCO3)[C@H](C)CN([C@H](C)CO)C(=O)c2cc(NC(=O)Nc3ccc(F)cc3)ccc2O1`, the cytotoxicity call in the test on HSkMC and in the test with HepG2 was “inactive” in each case. For the same compound, in the test with S. aureus RN4220, the growth inhibition call was “inactive”.

Consider `O=C1CCOCC1`, for which the cytotoxicity call in the test on HSkMC and with HepG2 was “inactive” in each case. For the same compound, the growth inhibition call in the test with S. aureus RN4220 was “inactive”.

Regarding `COc1ccc(CN(C)C[C@H]2OCCCC[C@H](C)Oc3ccc(NC(=O)Nc4ccc(F)cc4)cc3C(=O)N([C@@H](C)CO)C[C@H]2C)cc1`, in the test on HSkMC, the cytotoxicity call was “inactive”. Further, the cytotoxicity call in the test on HepG2 was “active”. For the same compound, the growth inhibition call in the test on S. aureus RN4220 is “inactive”.

Take `C[C@@H]1CN([C@@H](C)CO)C(=O)c2cc(NS(=O)(=O)c3ccc(F)cc3)ccc2O[C@@H](C)CCCCO[C@@H]1CN(C)C(=O)Nc1ccc(C(F)(F)F)cc1`: in the test with HSkMC, the cytotoxicity call is “inactive”. The cytotoxicity call with HepG2 is “active”. In addition, in the test with S. aureus RN4220, the growth inhibition call was “inactive”.

For `CCCN(C)C[C@@H]1OCCCC[C@H](C)Oc2ccc(NC(=O)NC3CCCCC3)cc2C(=O)N([C@@H](C)CO)C[C@@H]1C`, the cytotoxicity call with HSkMC and in the test on HepG2 was “inactive” in each case. In the test on S. aureus RN4220, the growth inhibition call is “inactive”.

Regarding `COc1ccc(NC(=O)N(C)C[C@@H]2Oc3ccc(NS(C)(=O)=O)cc3CC(=O)N([C@H](C)CO)C[C@H]2C)cc1`, the cytotoxicity call in the test with HSkMC and with HepG2 was “inactive” throughout. Also, in the test on S. aureus RN4220, the growth inhibition call was “inactive”.

On to `COc1cccc(S(=O)(=O)N(C)C[C@H]2Oc3cc(C4=CCCC4)ccc3S(=O)(=O)N([C@H](C)CO)C[C@@H]2C)c1`, for which the cytotoxicity call with HSkMC and with HepG2 was “inactive” in each case. Besides, in the test with S. aureus RN4220, the growth inhibition call was “inactive”.

With `Cc1ccc(S(=O)(=O)N(C)C[C@@H]2Oc3c(NC(=O)NC(C)C)cccc3C(=O)N([C@H](C)CO)C[C@@H]2C)cc1`, the cytotoxicity call in the test on HSkMC and with HepG2 was “inactive” each time. Moreover, the growth inhibition call with S. aureus RN4220 was “inactive”.

As to `C[C@H](CO)N1C[C@H](C)[C@H](CN(C)C(=O)Nc2ccccc2)OCCCC[C@H](C)Oc2ccc(NS(=O)(=O)c3ccccc3)cc2C1=O`, the cytotoxicity call in the test with HSkMC and in the test with HepG2 was “inactive” in each case. Moreover, the growth inhibition call in the test with S. aureus RN4220 is “inactive”.

On to `COc1ccc(CN(C)C[C@@H]2OCCCC[C@H](C)Oc3ccc(NS(=O)(=O)c4ccc(Cl)cc4)cc3C(=O)N([C@@H](C)CO)C[C@H]2C)cc1`, for which the cytotoxicity call with HSkMC was “inactive”. Besides, in the test with HepG2, the cytotoxicity call is “active”. For the same compound, the growth inhibition call in the test on S. aureus RN4220 was “inactive”.

Regarding `COc1ccc(S(=O)(=O)N(C)C[C@@H]2Oc3ccc(NC(=O)CCCN(C)C)cc3CC(=O)N([C@@H](C)CO)C[C@@H]2C)cc1`, the cytotoxicity call with HSkMC and in the test with HepG2 was “inactive” each time. Also, in the test on S. aureus RN4220, the growth inhibition call was “inactive”.

On to `C[C@H](CO)N1C[C@H](C)[C@H](CN(C)C(=O)c2ccccc2)OCCCC[C@H](C)Oc2ccc(NC(=O)Cc3ccccc3)cc2C1=O`, for which the cytotoxicity call in the test on HSkMC and in the test on HepG2 was “inactive” each time. For the same compound, the growth inhibition call in the test with S. aureus RN4220 was “inactive”.

`N#CCc1ccc(Cl)cc1F`: the cytotoxicity call in the test on HSkMC and in the test with HepG2 was “inactive” throughout. Moreover, the growth inhibition call in the test on S. aureus RN4220 is “inactive”.

For the compound `CN1CCN(C(=O)C[C@@H]2C[C@@H]3c4cc(NS(=O)(=O)c5ccc(F)cc5)ccc4O[C@@H]3[C@H](CO)O2)CC1`, the cytotoxicity call in the test with HSkMC and with HepG2 was “inactive” each time. Further, the growth inhibition call with S. aureus RN4220 was “inactive”.

With `C[C@H](CO)N1C[C@H](C)[C@H](CN(C)C(=O)c2ccccn2)Oc2cc(C#Cc3ccccc3)ccc2S1(=O)=O`, the cytotoxicity call in the test with HSkMC and in the test with HepG2 was “inactive” each time. The growth inhibition call in the test on S. aureus RN4220 was “inactive”.

Consider `CC1(C)CC(NC(=O)c2ccc(Cl)c(S(=O)(=O)N(Cc3ccccc3)c3ccccc3)c2)CC(C)(C)N1`, for which, in the test on HSkMC, the cytotoxicity call was “inactive”. Also, in the test with HepG2, the cytotoxicity call is “active”. Further, the growth inhibition call with S. aureus RN4220 is “inactive”.

As to `CCCN(C)C[C@H]1OCCCC[C@@H](C)Oc2ccc(NC(=O)CCC(F)(F)F)cc2C(=O)N([C@H](C)CO)C[C@H]1C`, the cytotoxicity call in the test on HSkMC and in the test on HepG2 was “inactive” throughout. The growth inhibition call in the test on S. aureus RN4220 is “inactive”.

Take `CC(C)NC(=O)Nc1ccc2c(c1)C(=O)N([C@H](C)CO)C[C@H](C)[C@H](CN(C)C(=O)Nc1ccc(F)cc1)OCCCC[C@@H](C)O2`: the cytotoxicity call in the test with HSkMC and with HepG2 was “inactive” each time. Also, the growth inhibition call with S. aureus RN4220 is “inactive”.

`C[C@H](CO)N1C[C@H](C)[C@@H](CN(C)C(=O)Nc2cccc3ccccc23)Oc2c(NS(=O)(=O)c3ccc(F)cc3)cccc2C1=O`: the cytotoxicity call in the test on HSkMC (human skeletal muscle cells) and in the test with HepG2 was “inactive” each time. Moreover, in the test with S. aureus RN4220, the growth inhibition call was “inactive”.

Source of the values: the antibiotic and cytotoxicity screens of Wong et al. (2023).
